In all, about 150,000 compounds went through this assay and about 540 (0.36%) showed an effect of 50% or more. The list shows a part of the results.

The subject of the assay is Plasmodium falciparum. The experiment in a line: Primary screen in NF54 nanoGlo assay, in single point, at 2uM, 72h; a lower Z score goes with more inhibition. The assay is classed as functional, Erythrocyte. The conditions noted are these: timepoint 72 hour.
As usually defined, the % Inhibition is the drop in the measured response relative to a control, in per cent. Turning to `Cc1cc(NC(=O)Nc2cc(C)on2)no1`, the “% Inhibition” value is on record as -1% and the Z score was found to be 0.17.
As for `CCOc1ccccc1NC(=O)[C@H]1CCCN(c2nc3c(s2)c(C)nn3-c2ccc(C)cc2)C1`, the “% Inhibition” value is reported as -7% and the Z score turned out to be 1.31.
Take `N#Cc1ccc(NC2CCC3(CC2)OCCO3)cc1`: the “% Inhibition” value was -2% and the Z score turned out to be 0.37.
Taken in the same sequence, the figures for `Cc1ncsc1CN(C)c1c(F)cncc1Cl` were -14% and 1.72.
`COc1ccc(-c2nc(NCCN3CCCCC3)nc3nn(Cc4ccccc4)c(N)c23)c(F)c1`: the “% Inhibition” value is on record as -4% and the Z score was determined as 0.68.
Regarding `COCCNC(=O)[C@H]1C[C@H](Oc2ccccc2)CN1S(=O)(=O)c1ccc(OC)cc1`, the “% Inhibition” value is -14% and the Z score stood at 2.75.
The corresponding values for `O=C1CN(Cc2ccc(CN3CCCCC3)s2)C[C@H](O)CN1Cc1cccnc1` are -19% and 2.17.
Turning to `Cc1ccc(-c2nc(NC[C@H]3CCCO3)ncc2C(=O)O)cc1`, the “% Inhibition” value was -6% and the Z score is given as 0.8.
The corresponding values for `C[C@H]1CC(NC(=O)c2ccns2)=NN1Cc1ccccc1` are -13% and 2.42.
Turning to `CC(C)c1nsc(N[C@H]2CCCN(C(N)=O)C2)n1`, the “% Inhibition” value was -13% and the Z score is reported as 1.52.
Turning to `O=C(c1ccc[nH]1)N1CC2CCC1C1CN(Cc3ccccc3)CC21` (stereo not given), the “% Inhibition” value worked out at 4% and the Z score is listed as -0.54.
For the compound `O=C1N(Cc2ccc(F)c(F)c2)CCC[C@@]12CCN(C1CCC1)C2`, the “% Inhibition” value is 7% and the Z score is recorded as -0.65.
Taken in the same sequence, the figures for `CNC(=O)C(C)(C)CNc1ccncc1Cl` were 1% and -0.11.
On to `O=C(Cc1cccnc1)NC1CCN(c2nnc3ccc(Cl)cn23)CC1`, for which the “% Inhibition” value was found to be 28% and the Z score was -3.18.
Consider `CC1CCc2ccccc2N1CCC(=O)N1CCCC(O)C1` (stereo not given), for which the “% Inhibition” value is on record as -12% and the Z score amounted to 1.27.
For `C[C@H](O)c1onc(-c2cccs2)c1C(=O)N1CCC(Cc2ccccc2)CC1`, the “% Inhibition” value stood at 3% and the Z score is recorded as -0.41.
Turning to `Cc1ccnc(-c2noc(Cn3c(=O)c(C)cn(C)c3=O)n2)c1`, the “% Inhibition” value is on record as 37% and the Z score was -1.67.
On to `O=C(NCC1CCN(C(=O)c2cn[nH]c2)CC1)c1ccoc1`, for which the “% Inhibition” value is -3% and the Z score was found to be 0.39.
In the case of `CN(C[C@H]1CC(=O)N(C2CCCC2)C1)C(=O)Nc1ccc2ncsc2c1`, the “% Inhibition” value is recorded as 6% and the Z score is on record as -0.95.
As for `COCc1ccccc1CNCc1cnc(-c2ccccc2)s1`, the “% Inhibition” value is 2% and the Z score was -0.23.
Taken in the same sequence, the figures for `NC(=O)C[C@H](NC(=O)COc1cccc2cccnc12)C1CCCCC1` were 8% and -0.88.
With `Cc1nc(C2CN(c3ncncc3Cl)C2)n[nH]1`, the “% Inhibition” value is -2% and the Z score is 0.44.
Take `Cc1nc2cc(N3C[C@@H](C(=O)NCc4ccco4)CC3=O)ccc2o1`: the “% Inhibition” value is -10% and the Z score is 2.02.
Turning to `O=C(c1cccs1)N(C[C@H]1CCCO1)c1nc(-c2cccc(C(F)(F)F)c2)cs1`, the “% Inhibition” value is -1% and the Z score is 0.29.
Turning to `COc1ccc(NC(=O)c2cc(S(=O)(=O)N3CCOCC3)ccc2NC2CCCCC2)cc1`, the “% Inhibition” value is reported as 0% and the Z score stood at 0.01.
Taken in the same sequence, the figures for `O=C1CCc2cc(F)cc(NC(=O)NCc3csc(N4CCCC4)n3)c2N1` were -2% and 0.25.
In the case of `Cc1nc(C)c(C(=O)N[C@H]2CCCc3sc(-c4ccc(F)cc4)nc32)o1`, the “% Inhibition” value is listed as -9% and the Z score came to 1.4.
Turning to `O=C(NC[C@H]1C[C@@H]1C1CCC1)c1c[nH]nn1`, the “% Inhibition” value was -8% and the Z score is on record as 1.06.
On to `O=C(Cn1cccn1)N1CC(c2nc(-c3ncccn3)no2)C1`, for which the “% Inhibition” value worked out at 24% and the Z score is on record as -0.93.
For `Cc1cc(C)cc(-n2ccc(=O)c(-c3nc(-c4ccc(C)c(C)c4)no3)n2)c1`, the “% Inhibition” value worked out at 3% and the Z score is on record as -0.45.
For the compound `O=c1c2cnn(-c3ccccc3)c2nnn1Cc1nnsc1Cl`, the “% Inhibition” value amounted to 6% and the Z score is listed as -0.59.
Consider `C[C@H]1C(=O)N2C[C@@H](N(C)C)C[C@H]2CN1C(=O)c1cc(F)ccc1Cl`, for which the “% Inhibition” value is listed as -24% and the Z score is reported as 2.08.
`O=C(c1ccc(C#CC2(O)CCCCC2)cc1)N1CCN(c2ccccc2Cl)CC1`: the “% Inhibition” value is recorded as -12% and the Z score is recorded as 2.2.
For the compound `Cc1ccc2[nH]c(N3CCN(C(=O)Nc4ccc5c(c4)OCO5)CC3)nc2c1`, the “% Inhibition” value was found to be 4% and the Z score is on record as -0.63.
For `CCn1ccc(C(=O)N[C@H]2COCC[C@@H]2OCc2ccccn2)cc1=O`, the “% Inhibition” value was -3% and the Z score is 0.5.
Take `O=C(NCc1cccnc1N1CCOCC1)Nc1cn[nH]c1`: the “% Inhibition” value is -3% and the Z score turned out to be 0.51.
As to `CC1Oc2ccc(NC(c3ccccc3)c3ncc[nH]3)cc2NC1=O` (stereo not given), the “% Inhibition” value is -13% and the Z score came out at 1.3.
As for `O=C(NC1CCC2(CCCCC2)CC1)C1CC=CCC1C(=O)N1CCOCC1` (stereo not given), the “% Inhibition” value is -4% and the Z score was found to be 0.54.
On to `c1ccc(-c2nc(-c3ccc4c(c3)OCO4)cs2)cc1`, for which the “% Inhibition” value is -10% and the Z score is listed as 1.87.
As to `O=S(=O)(c1cc2c(s1)CCCC2)N1CCOCC1`, the “% Inhibition” value is recorded as -11% and the Z score was 1.27.
Taken in the same sequence, the figures for `C[C@H]1CCOCCN1C(=O)c1ccc(F)c(Cl)c1F` were -18% and 2.1.
Taken in the same sequence, the figures for `COc1ccnc(-c2c[nH]c3ccc(C)cc23)n1` were 1% and -0.07.
As for `COC[C@H]1C[C@@H](NC(=O)c2ccc3c(c2)OCO3)[C@H](O)[C@@H]1O`, the “% Inhibition” value is listed as -10% and the Z score is on record as 1.62.
On to `COc1cc(C(F)(F)F)ncc1NC(=O)NC1CCN(CC(C)C)CC1`, for which the “% Inhibition” value is recorded as -5% and the Z score is reported as 0.62.
Turning to `O=C(c1cccc(Cl)c1)[C@H]1CCCN(C(=O)Nc2ccc3c(c2)OCO3)C1`, the “% Inhibition” value is given as -17% and the Z score was determined as 2.6.
Consider `COc1ccc(-c2noc(CCCC(=O)Nc3cccnc3)n2)cc1OC`, for which the “% Inhibition” value is given as -9% and the Z score was found to be 1.06.
For the compound `CCCn1nnnc1COC(=O)c1ccc2nccnc2c1`, the “% Inhibition” value is given as -18% and the Z score was 2.94.
For the compound `CCCNC(=O)CN(C)c1nnc(N2CCCC2=O)s1`, the “% Inhibition” value is listed as -5% and the Z score turned out to be 1.
Take `Nc1ccnc(C(=O)N2CCO[C@H]3CCCC[C@@H]32)c1`: the “% Inhibition” value is recorded as -19% and the Z score was found to be 4.05.
Consider `O=C1CCC(Cn2nnc(C3CC3)n2)CC1`, for which the “% Inhibition” value is recorded as -11% and the Z score was determined as 1.38.
Take `Cc1cc(C(=O)NC[C@@]23CCCC=C2N(C)C(=O)CC3)n(C)n1`: the “% Inhibition” value is listed as -12% and the Z score worked out at 1.77.
Taken in the same sequence, the figures for `Cc1ccc(C(=O)Cc2nnn(-c3ccccc3)n2)cc1` were 5% and -0.92.
`COc1nn(C)cc1NC(=O)NC1(C)C(C)(C)C1(C)C`: the “% Inhibition” value is reported as 3% and the Z score is -0.5.
Regarding `O=c1[nH]nc(-c2ccccc2-c2ccccc2)[nH]1`, the “% Inhibition” value is given as 3% and the Z score is recorded as -0.53.
`CC(=O)N[C@H]1[C@H](c2ccccc2)N(Cc2ccc(S(C)(=O)=O)cc2)CC[C@@]1(C)O`: the “% Inhibition” value turned out to be 11% and the Z score is given as -1.7.
On to `COc1cc(=O)c(C(=O)N2CCC(C(N)=O)CC2)nn1-c1ccc(F)c(F)c1`, for which the “% Inhibition” value was 38% and the Z score is recorded as -1.31.
As for `O=C(c1nnc2n1CCCC2)N1CCN(Cc2ccc3c(c2)OCO3)CC1`, the “% Inhibition” value is -11% and the Z score is 1.8.
With `O=C(C[C@H]1CCCO1)N1Cc2cnnn2Cc2ccccc21`, the “% Inhibition” value is reported as -13% and the Z score is on record as 1.68.
`CC(C)c1nncn1CCNC(=O)c1ccc(Cl)cn1`: the “% Inhibition” value is given as -1% and the Z score was found to be 0.17.
As to `CC(C)c1cc(N2CCC[C@H](N(C)C)CC2)nc(C(F)(F)F)n1`, the “% Inhibition” value is recorded as -15% and the Z score is 1.48.
The corresponding values for `C=C(C)CN(CC)C(=O)c1cccc(-c2c[nH]c(C(=O)N3CCOCC3)c2)c1` are 13% and -2.35.
The corresponding values for `COc1c(C)cc(C(=O)N2CCc3onc(-c4ccccc4)c3C2)cc1C` are -4% and 0.61.
Taken in the same sequence, the figures for `C[C@@H](Cn1cncn1)Nc1nnc(-c2ccccc2)s1` were -4% and 0.45.
For the compound `COc1ccccc1NC(=O)c1oc2ccccc2c1NC(=O)c1cccc2ccccc12`, the “% Inhibition” value was -8% and the Z score is listed as 1.45.
On to `Cc1ccc(C)c(N2CCN(S(=O)(=O)c3c(C(=O)N4CCCC4)c(C)n(C)c3C)CC2)c1`, for which the “% Inhibition” value is -4% and the Z score was found to be 0.76.
Taken in the same sequence, the figures for `COc1ccc(-c2noc(C3CCC4(CC3)NC(=O)NC4=O)n2)cc1OC` (stereo not given) were -4% and 0.64.
On to `Cc1c(CC(=O)NCCCN)c2c(n1Cc1ccc(F)cc1)CCCC2=O`, for which the “% Inhibition” value is 0% and the Z score is recorded as 0.09.
As to `CC(c1ccccc1)C1CCCCCN1Cc1nc(C(=O)O)co1` (stereo not given), the “% Inhibition” value is on record as -8% and the Z score was determined as 1.43.
With `COc1ccc(S(=O)(=O)NC[C@H]2CCC[C@@H]2O)cn1`, the “% Inhibition” value is reported as -13% and the Z score was determined as 1.78.
`CC(=O)N1CCN(C(=O)NC2CCCCCC2)CCC12CCOCC2`: the “% Inhibition” value turned out to be 6% and the Z score is on record as -0.87.
Consider `c1ccc(-c2nc3nc(-c4ccc(-c5cn6nc(-c7ccccc7)c(-c7ccccc7)nc6n5)cc4)cn3nc2-c2ccccc2)cc1`, for which the “% Inhibition” value is listed as -8% and the Z score is reported as 1.07.
Turning to `O=C(O)[C@@H]1CCC[C@@H]1NCc1cn(Cc2ccccc2)c2ccccc12`, the “% Inhibition” value is 6% and the Z score is listed as -0.85.
For `Cc1n[nH]c(N2CCN(S(=O)(=O)C3CCC(F)(F)CC3)CC2)n1`, the “% Inhibition” value is recorded as -2% and the Z score was determined as 0.36.
For the compound `CC[C@@H](C(=O)OC(C)(C)C)N1CCS(=O)(=O)C(C)(C)C1`, the “% Inhibition” value was 0% and the Z score was found to be 0.07.
Taken in the same sequence, the figures for `CC(C)n1cnnc1CN1CCc2nocc2C1` were -1% and 0.16.
For the compound `Cc1ccc(C(N)=O)c(NC(=O)c2ccoc2C2CC2)c1`, the “% Inhibition” value is 6% and the Z score is -1.14.
Taken in the same sequence, the figures for `Cc1ccc2nc(-c3ccc(F)cc3)c(CN3CCNC(=O)CC3)cc2c1` were -3% and 0.41.
Taken in the same sequence, the figures for `Cc1c(C(=O)NCc2n[nH]c3c2CCCCC3)ccn1C` were -12% and 1.59.
The corresponding values for `O=C(NCC#CCOc1ccc2c(c1)OCO2)c1cnccn1` are 2% and -0.28.
With `CC(C)C1N(C(=O)NC2CCC(=O)NC2C2CCCO2)CC12CC=CC2` (stereo not given), the “% Inhibition” value is listed as -6% and the Z score was found to be 1.16.
The corresponding values for `CCN(CC)CCNC(=O)N(C)Cc1noc(C2CCCC2)n1` are 4% and -0.53.
Taken in the same sequence, the figures for `Cc1ccc(C2CCN(C(=O)c3cnn4c3CCC4)CC2)cn1` were -9% and 1.43.
For the compound `COCCNc1ccccc1CNC(=O)c1nc2cccnc2s1`, the “% Inhibition” value is recorded as -3% and the Z score worked out at 0.28.
Turning to `C[C@H](NC(=O)c1ccnnc1)C1=CCCCC1`, the “% Inhibition” value is listed as 3% and the Z score is -0.49.
Turning to `CC(C)C[C@H](NC(=O)CCC1CCCCC1)C(N)=O`, the “% Inhibition” value is on record as -4% and the Z score is 0.46.
